Target: T1, BcATG4 (Botrytis cinerea, UniProt A6SDQ3)
T1 construct: gene atg4
Assay: in vitro cleavage of Citrine-BcATG8-ShR sensor, western blot
Conditions: RT, 10 min preincubation; weak effect

T1 sequence (A6SDQ3 whole entry): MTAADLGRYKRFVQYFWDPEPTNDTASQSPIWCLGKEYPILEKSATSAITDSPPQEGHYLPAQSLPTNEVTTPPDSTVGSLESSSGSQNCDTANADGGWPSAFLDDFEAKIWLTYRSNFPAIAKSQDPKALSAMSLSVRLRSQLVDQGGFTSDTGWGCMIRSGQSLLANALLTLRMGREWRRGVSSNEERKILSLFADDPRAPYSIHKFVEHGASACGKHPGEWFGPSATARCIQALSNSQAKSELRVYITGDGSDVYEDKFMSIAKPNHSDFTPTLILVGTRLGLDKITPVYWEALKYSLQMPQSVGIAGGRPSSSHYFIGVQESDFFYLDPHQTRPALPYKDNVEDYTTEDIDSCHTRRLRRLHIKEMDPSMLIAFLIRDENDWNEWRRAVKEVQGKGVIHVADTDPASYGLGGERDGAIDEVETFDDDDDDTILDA

Structure (SMILES) | in vitro cleavage of Citrine-BcATG8-ShR sensor, western blot
O=C1C(c2ccccc2)=Nc2ccccc21 [PIO, 2-phenyl-3H-indol-3-one] | PID and PIO analogs of EB have weak effects on the cleavage
O=C1c2ccccc2C(=O)N1c1ccccc1 [PID, 2-phenyl-1H-isoindole-1,3(2H)-dione] | PID and PIO analogs of EB have weak effects on the cleavage
